From the supplement of paper PMC10037445
Values joined by “and” are separate entries in the source; they are usually repeats but may differ in a detail not shown here. Equal values may be shown once. In all, about 2,900 compounds were measured (“IRF Lucia reporter activity, fold change vs agonist alone”: median about 0.9, highest 2% from about 2.8 on). Some of the results follow.

How the values were obtained:
RAW-Dual [1] = experiment: IRF Lucia reporter activity, fold change vs agonist alone; cytotoxicity flag (confluency mask): not cytotoxic; higher = enhanced IRF activity
Method in brief: (§1)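 Cytotoxic wells were those whose IncuCyte confluency was below 70% of agonist controls in both mask sets. The cells were RAW-Dual macrophages at 50,000 cells/well in DMEM on 384-well plates, dosed with 50 nL of library stock by pin tool, stimulated with a PRR agonist 1 h later, and kept at 37 °C, 5% CO2 for 20 hours. IRF and NF-κB reporter activity, as fold change over agonist-alone wells, came from supernatant read by QuantiLuc luminescence and QuantiBlue absorbance, respectively.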

RAW-Dual [2] = experiment: IRF Lucia reporter activity, fold change vs agonist alone; higher = enhanced IRF activity; conditions: library stock concentration (final ~1000-fold dilution): 10 mM; cytotoxicity flag (confluency mask): not cytotoxic; agonist: MPLA (TLR4) […]
Method in brief: as §1

[3] = agonist: 3'3'-cGAMP (STING) 10 ug/mL

SMILES | IRF Lucia reporter activity (RAW-Dual [1]; [3]) | IRF Lucia reporter activity (RAW-Dual [1]; agonist: LPS (TLR4) 0.1 ug/mL) | IRF Lucia reporter activity (RAW-Dual [2])
CC(NC(=O)c1c(N)nn2cccnc12)c1cc2cccc(C#Cc3cnn(C)c3)c2c(=O)n1-c1ccccc1 (centres undefined) (library stock concentration (final ~1000-fold dilution): 10 mM) | 0.813 | 1.14 | –
Cl.N=c1ccn2c(n1)OC1C(O)C(CO)OC12 (centres undefined) (library stock concentration (final ~1000-fold dilution): 10 mM) | 0.707 | 0.867 | –
Cl.N=c1ccn2c(n1)OC1C(O)C(CO)OC12 (centres undefined) | – | – | 0.879
CC(C)(C)c1ccc(Cn2nc(-c3ccc(Cl)cc3)cc2C(=O)NO)cc1 (library stock concentration (final ~1000-fold dilution): 10 mM) | 1.05 | 1.16 | –
CCC(C)C(=O)OC1CC(O)C=C2C=CC(C)C(CCC(O)CC(O)CC(=O)O)C21 (centres undefined) (library stock concentration (final ~1000-fold dilution): 10 mM) | 1.01 and 0.999 | 1.13 | –
Cc1c[nH]c(-c2cnc(NCCNc3ccc(C#N)cn3)nc2-c2ccc(Cl)cc2Cl)n1 | – | – | 0.317
Cc1c[nH]c(-c2cnc(NCCNc3ccc(C#N)cn3)nc2-c2ccc(Cl)cc2Cl)n1 (library stock concentration (final ~1000-fold dilution): 10 mM) | 0.367 | 0.257 | –
Fc1ccc2[nH]ccc2c1-c1nc(N2CCOCC2)c2sc(CN3CCN(CC4CC4)CC3)cc2n1 (library stock concentration (final ~1000-fold dilution): 10 mM) | 0.732 | 2.74 | –
CNC(=O)c1ccccc1Sc1ccc2c(/C=C/c3ccccn3)n[nH]c2c1 | – | – | 0.404
CNC(=O)c1ccccc1Sc1ccc2c(/C=C/c3ccccn3)n[nH]c2c1 (library stock concentration (final ~1000-fold dilution): 10 mM) | 0.0455 | 0.5 | –
Cc1ccc(NC(=O)Nc2cc(C(F)(F)F)ccc2F)cc1Nc1ccc2c(c1)NC(=O)/C2=C\c1ccc[nH]1 | – | – | 0.314
Cc1ccc(NC(=O)Nc2cc(C(F)(F)F)ccc2F)cc1Nc1ccc2c(c1)NC(=O)/C2=C\c1ccc[nH]1 (library stock concentration (final ~1000-fold dilution): 10 mM) | 0.161 | 0.421 | –
S=C=Nc1cccc(NC(=S)NCCCCNC(=S)Nc2cccc(N=C=S)c2)c1 | – | – | 0.727
S=C=Nc1cccc(NC(=S)NCCCCNC(=S)Nc2cccc(N=C=S)c2)c1 (library stock concentration (final ~1000-fold dilution): 10 mM) | 0.49 | 0.49 | –
CCOc1cc(N2CCC(O)CC2)ccc1Nc1ncc2c(n1)N(C)c1ccccc1C(=O)N2C | – | – | 0.32
CCOc1cc(N2CCC(O)CC2)ccc1Nc1ncc2c(n1)N(C)c1ccccc1C(=O)N2C (library stock concentration (final ~1000-fold dilution): 10 mM) | 0.518 | 0.253 | –
CCOC(=O)C1=C(C)NC(C)=C(C(=O)OC)C1c1cccc([N+](=O)[O-])c1 (centres undefined) | – | – | 0.949
CCOC(=O)C1=C(C)NC(C)=C(C(=O)OC)C1c1cccc([N+](=O)[O-])c1 (centres undefined) (library stock concentration (final ~1000-fold dilution): 10 mM) | 1.45 | 0.876 | –
